# Measured values taken from PubChem BioAssay (EPA / NIEHS).
# For some of these results: The hits were mostly taken out for another list; the other results follow. Results filed as inconclusive are left out. This is a selection; strong and weak results do not stand in their true shares. The source holds several records for some structures; these can differ, active in one and inactive in another. Calls of active or inactive are those of the source. The calls were made as follows, unless noted: active = hit-call score of the fitted dose curve at least 0.9, where 1 is the maximum; inconclusive = response in the unintended direction; inactive = score below 0.9.
# Legend:
# [1] = biological target: human RAR-related Orphan Receptor beta (RORb), RORB (gene 6096) (UniProt Q92753); test: ATG_RORb_TRANS: Attagene TRANS-FACTORIAL HepG2 Assay for human RAR-related Orphan Receptor beta (RORb) (AID 2283010)
# Procedure, shortened: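 Transfect HepG2 with multiple GAL4-UAS reporter transcription units; dose chemicals for 24 h; isolate RNA, reverse-transcribe and PCR-amplify reporter sequences; label, digest and resolve fragments by capillary electrophoresis; fit increases relative to DMSO.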
# [2] = biological target: human Retinoid X Receptor beta (RXRb), RXRB (gene 6257) (UniProt P28702); test: ATG_RXRb_TRANS: Attagene TRANS-FACTORIAL HepG2 Assay for human Retinoid X Receptor beta (RXRb) (AID 2283013)
# Procedure, shortened: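 Chimeric receptor-Gal4 activity was assessed in transiently transfected human HepG2 cells after 24 h exposure. Transcripts from GAL4-UAS reporters were quantified by fluorescent RT-PCR and capillary electrophoresis, with DMSO as negative control and baseline.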
# [3] = biological target: human Thyroid Receptor alpha (THRa1), THRA (gene 7067) (UniProt P10827); test: ATG_THRa1_TRANS: Attagene TRANS-FACTORIAL HepG2 Assay for human Thyroid Receptor alpha (THRa1) (AID 2283014)
# Procedure, shortened: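 HepG2 cells transiently transfected with chimeric NR-Gal4 and GAL4-UAS reporter units, dosed 24 h. Reporter mRNA quantified by RT-PCR, fluorescent labeling, HpaI digestion and capillary electrophoresis; gain-of-signal fit versus DMSO.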
# [4] = biological target: Nucleoli Translocation, AR (gene 367) (UniProt P10275); test: UPITT_HCI_U2OS_AR_TIF2_Nucleoli_Antagonist: University of Pittsburgh U2OS Androgen Receptor-Transcriptional Intermediary Factor 2 (AR-TIF2) Antagonism High Content Imaging Assay for Nucleoli Translocation (AID 2283997)
# Procedure, shortened: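 Antagonism is read as loss of nucleolar AR-RFP signal relative to DHT, imaged in U2OS cells also carrying GFP-TIF2. Compounds screened at 20 uM final, 0.2% DMSO; primary actives retested in triplicate.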
# [5] = biological target: human RAR-related Orphan Receptor gamma (RORg), RORC (gene 6097) (UniProt P51449); test: ATG_RORg_TRANS: Attagene TRANS-FACTORIAL HepG2 Assay for human RAR-related Orphan Receptor gamma (RORg) (AID 2283011)
# Procedure, shortened: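 HepG2 cells transiently transfected with GAL4-UAS reporter units and chimeric RORg-Gal4 construct; after 24 h chemical exposure, reporter mRNA measured by RT-PCR with fluorescent capillary electrophoresis, gain of signal fitted against DMSO.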
# [6] = read-out: Vascular endothelial growth factor receptor 2 (Homo sapiens) (UniProt P35968); test: BSK_4H_VEGFRII: BioMAP Diversity Plus: 4H Assay for Vascular endothelial growth factor receptor 2 (VEGFR2) Biomarker Activity (AID 2283031; active = hit-call score of the fitted dose curve at least 0.9, where 1 is the maximum; inactive = score below 0.9;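 also: cell-surface VEGFR2 protein level quantified by ELISA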); details: actives raise or lower the signal; primary human endothelial cells (HUVEC)
# Procedure, shortened: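 Primary human umbilical vein endothelial cells (4H system), 24 h exposure; cell-surface VEGFR2 measured by ELISA. Bidirectional fitting versus DMSO; cytotoxicity checked in parallel by SRB total-protein staining.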
# [7] = TOX21_p53_BLA_p2_viability: Viability Assessment in the Tox21 HCT-116 p53 Agonism Beta-lactamase Assay, Phase 2 (AID 2283591);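 also: compound exposure lasted 16 h at 37 °C; actives lower the ATP signal meaning cytotoxicity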
# Procedure, shortened: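 Cytotoxicity readout: CellTiter-Glo ATP luminescence, 30 min at room temperature, after the beta-lactamase read. Cells were HCT116 exposed 16 h at 37C to compounds pin-transferred at 217-fold dilution from DMSO stocks.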
# [8] = biological target: Cellular tumor antigen p53 (Homo sapiens) (UniProt P04637); test: TOX21_p53_BLA_p4_ratio: Tox21 HCT-116 p53 Agonism Beta-lactamase Assay, Ratio, Phase 4 (AID 2283601)
# Procedure, shortened: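 Signal is the blue/green (460nm/530nm) ratio of cleaved versus uncleaved CCF4-AM substrate, read after 2 h substrate loading. Cells were HCT116 carrying the p53-responsive beta-lactamase reporter, dosed 16 h at 37C, 5% CO2; CellTiter-Glo measured in parallel.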
# [9] = read-out: Matrix Metallopeptidase 1 (MMP1), MMP1 (gene 4312); test: BSK_hDFCGF_MMP1: BioMAP Diversity Plus: hDFCGF Assay for Matrix Metallopeptidase 1 (MMP1) Biomarker Activity (AID 2283064; active = hit-call score of the fitted dose curve at least 0.9, where 1 is the maximum; inactive = score below 0.9); details: actives raise or lower the signal; primary human foreskin fibroblasts
# Procedure, shortened: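 MMP1 levels quantified by ELISA 24 h after dosing human dermal fibroblast cultures, with parallel SRB total-protein staining for overt cytotoxicity. Data fitted in both directions against DMSO baseline.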
# [10] = biological target: Estrogen receptor (Homo sapiens) (UniProt P03372); test: CCTE_Deisenroth_AIME_384WELL_LUC_Shift: CCTE's 384-well Estrogen Receptor Transactivation Assay with AIME metabolic competence data shift (ERTA luciferase; difference in metabolism positive and negative), Deisenroth Lab (AID 2284041; active = hit-call score of the fitted dose curve at least 0.9, where 1 is the maximum; inactive = score below 0.9;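 also: shift is response with S9 minus without S9 so positive means metabolism raised ER signal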)
# Procedure, shortened: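 Test chemicals (0.002–200 uM, 10-point) were pre-incubated 2 h with alginate microspheres containing phenobarbital/beta-naphthoflavone-induced male Sprague Dawley rat liver S9 or water, then medium was transferred to VM7Luc4E2 cells for 24 h luciferase readout; shift = S9-positive minus S9-negative normalized response.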
# [11] = biological target: Nuclear receptor subfamily 1 group I member 2 (Homo sapiens) (UniProt O75469); test: ATG_PXR_TRANS: Attagene TRANS-FACTORIAL HepG2 Assay for human Pregnane X Receptor (PXR) (AID 2283008)
# Procedure, shortened: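 Transient HepG2 transfectants carrying multiplexed reporter transcription units; PXR activity read through a Gal4 chimera. 24 h exposure. RT-PCR/CE fluorescence; upward curve fit referenced to DMSO.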
# [12] = read-out: Pselectin, SELP (gene 6403); test: BSK_4H_Pselectin: BioMAP Diversity Plus: 4H Assay for Pselectin Biomarker Activity (AID 2283026; active = hit-call score of the fitted dose curve at least 0.9, where 1 is the maximum; inactive = score below 0.9); details: actives raise or lower the signal; primary human endothelial cells (HUVEC)
# Procedure, shortened: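 Endothelial primary cells (human umbilical vein) are dosed, incubated 24 h, and assayed for surface P-selectin by ELISA; responses in either direction are fitted relative to the DMSO negative control.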
# [13] = read-out: Monocyte Chemoattractant Protein-1 (MCP1), CCL2 (gene 6347); test: BSK_LPS_MCP1: BioMAP Diversity Plus: LPS Assay for Monocyte Chemoattractant Protein-1 (MCP1) Biomarker Activity (AID 2283081; active = hit-call score of the fitted dose curve at least 0.9, where 1 is the maximum; inactive = score below 0.9;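 also: secreted MCP-1 protein quantified by ELISA in culture supernatant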); details: actives raise or lower the signal; primary human HUVEC with PBMC
# Procedure, shortened: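 Human umbilical vein endothelial cells co-cultured with PBMC, LPS-stimulated; secreted MCP-1 measured by ELISA 24 h after compound addition. Bidirectional curve fitting against DMSO baseline; SRB total-protein staining in parallel cultures for cytotoxicity.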
# [14] = ATG_XTT_Cytotoxicity: Cytotoxicity Assessment in the Attagene TRANS-FACTORIAL HepG2 Assay (AID 2283584)
# Procedure, shortened: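 HepG2 cells transiently transfected with GAL4-UAS multiple reporter units, dosed 24 h; cytotoxicity read by XTT as loss of signal versus DMSO baseline.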
# [15] = Tanguay_ZF_120hpf_PE_legacy: (Legacy) Oregon State University Tanguay Lab 120 Hour Post-fertilization zebrafish Assay for Pericardial Edema (AID 2283640)
# [16] = Tanguay_ZF_120hpf_TR_legacy: (Legacy) Oregon State University Tanguay Lab 120 Hour Post-fertilization zebrafish Assay for Touch Response (AID 2283667)
# [17] = ACEA_AR_agonist_AUC_viability: ACEA Biosciences xCELLigence Real-Time Cell Analysis on Androgen Receptor Agonism for Viability (AID 2283775);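 also: viability read 80 hours after compound addition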
# Procedure, shortened: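 22Rv1 cells; impedance growth kinetics; 8-pt 1:4 dilutions from 100 uM top final, ≤0.5% DMSO; n = 2; 80 h read; AUC viability, loss-of-signal vs DMSO.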
# [18] = biological target: human Retinoic Acid Receptor gamma (RARg), RARG (gene 5916) (UniProt P13631); test: ATG_RARg_TRANS: Attagene TRANS-FACTORIAL HepG2 Assay for human Retinoic Acid Receptor gamma (RARg) (AID 2283009)
# Procedure, shortened: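 TRANS format measured activity of exogenous NR-GAL4 fusion (RARg) in transfected HepG2 liver cells after 24 h dosing. Induced reporter RNA was detected by RT-PCR/capillary electrophoresis fluorescence, analysed in the positive direction against DMSO.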
# [19] = biological target: Estrogen receptor (Homo sapiens) (UniProt P03372); test: NVS_NR_hER: NovaScreen (NVS) Nuclear Receptor Binding Assay for human Estrogen Receptor (ER) (AID 2283348)
# Procedure, shortened: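 Cell-free MCF7-derived ER preparation, specific radioligand displaced by test compound, read by scintillation counting 18 h post-dosing. Duplicate single-point 25 uM screen, then concentration-response confirmation; DMSO baseline.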
# [20] = biological target: Estrogen receptor (Homo sapiens) (UniProt P03372); test: OT_ERa_GFPERaERE_0120: Odyssey Thera (OT) 2-hour HeLa Transcription Induction Assay for Estrogen Receptor (AID 2283382)
# Procedure, shortened: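 Cells (human cervical HeLa) receive compound, incubate 2 hours, then are imaged for fluorescent reporter induction. Images are quantified by high content analysis, and activity is fitted as gain of signal against DMSO.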
# [21] = read-out: Interleukin-1 alpha (IL1a), IL1A (gene 3552); test: BSK_BE3C_IL1a: BioMAP Diversity Plus: BE3C Assay for Interleukin-1 alpha (IL1a) Biomarker Activity (AID 2283016; active = hit-call score of the fitted dose curve at least 0.9, where 1 is the maximum; inactive = score below 0.9); details: actives raise or lower the signal; primary human bronchial epithelial cells
# Procedure, shortened: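 Signal from IL-1a ELISA, taken 24 h after chemical dosing of human bronchial epithelial cells, is compared with DMSO as baseline using bidirectional curve fitting.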
# [22] = read-out: Interleukin-8 (IL8), CXCL8 (gene 3576); test: BSK_3C_IL8: BioMAP Diversity Plus: 3C Assay for Interleukin-8 (IL8) Biomarker Activity (AID 2283020; active = hit-call score of the fitted dose curve at least 0.9, where 1 is the maximum; inactive = score below 0.9); details: actives raise or lower the signal; primary human endothelial cells (HUVEC)
# Procedure, shortened: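 Endothelial primary cells of human umbilical vein origin are dosed with chemical; after 24 h the IL-8 biomarker is measured by ELISA, and concentration–response is fitted in both directions versus DMSO.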
# [23] = read-out: Thrombomodulin, THBD (gene 7056); test: BSK_CASM3C_Thrombomodulin: BioMAP Diversity Plus: CASM3C Assay for Thrombomodulin Biomarker Activity (AID 2283051; active = hit-call score of the fitted dose curve at least 0.9, where 1 is the maximum; inactive = score below 0.9;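 also: thrombomodulin protein level measured by ELISA 24 h after dosing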); details: actives raise or lower the signal; primary human coronary artery smooth muscle cells
# [24] = CEETOX_H295R_OHPREG: CeeTox H295R High-throughput Steroidogenesis Assay for OH-Pregnenolone (OHPREG) (AID 2283434; active = hit-call score of the fitted dose curve at least 0.9, where 1 is the maximum; inactive = score below 0.9); details: actives raise or lower the signal
# [25] = read-out: ATP-citrate lyase (ACLY), ACLY (gene 47); test: LTEA_HepaRG_ACLY: Life Technologies and Expression Analysis (LTEA) Assay for ATP-citrate lyase (ACLY) using HepaRG (AID 2283466; active = hit-call score of the fitted dose curve at least 0.9, where 1 is the maximum; inactive = score below 0.9); details: actives raise or lower the signal; mRNA level, 48 h
# Procedure, shortened: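 ACLY mRNA quantified by qRT-PCR on Fluidigm arrays against three housekeeping genes, after 48 h chemical treatment of HepaRG cells (top concentration 100 uM, half-log steps, 0.5% DMSO vehicle). Up- or down-regulation fitted relative to DMSO.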
smiles,measurement,setting,value
COc1cc(/C=C/C(=O)CC(=O)/C=C/c2ccc(O)c(OC)c2)ccc1O,outcome,[1],inactive
same,outcome,[2],inactive
same,outcome,[3],inactive
same,AC50,[4],active: 15.3 µM
CCCCCCCCCCCCCCCC[N+](C)(C)CC,outcome,[1],inactive
same,outcome,[5],inactive
same,AC50,[6],active: 33.5 µM
same,AC50,[7],active: 34.8 µM
same,AC50,[8],active: 33.9 µM
C=CC(C)(CCC=C(C)C)OC(=O)c1ccccc1 (centres undefined),AC50,[2],active: 31.2 µM
O=c1n(CC2CO2)c(=O)n(CC2CO2)c(=O)n1CC1CO1 (centres undefined),outcome,[5],inactive
same,AC50,[9],active: 30.9 µM
same,outcome,[10],inactive
O=CCCCC=O,outcome,[5],inactive
CC(=O)S[C@@H]1CC2=CC(=O)CC[C@]2(C)[C@H]2CC[C@@]3(C)[C@@H](CC[C@@]34CCC(=O)O4)[C@H]12,outcome,[11],inactive
same,AC50,[12],active: 29.4 µM
same,AC50,[13],active: 20.8 µM
same,outcome,[14],inactive
same,outcome,[7],inactive
same,outcome,[15],inactive
same,outcome,[16],inactive
same,AC50,[17],active: 33.4 µM
C=C(C)C(=O)OCC(CC)(COC(=O)C(=C)C)COC(=O)C(=C)C,outcome,[2],inactive
OC[C@@H](O)[C@@H](O)[C@H](O)[C@@H](O)CO,outcome,[18],inactive
same,outcome,[19],inactive
same,outcome,[20],inactive
same,outcome,[7],inactive
O=c1c(-c2ccc(O)cc2)coc2cc(O)cc(O)c12,AC50,[11],active: 23.4 µM
same,outcome,[21],inactive
same,AC50,[22],active: 15.1 µM
same,outcome,[23],inactive
same,AC50,[24],active: 13.1 µM
same,outcome,[25],inactive
same,outcome,[7],inactive
